Measured values reported in PubChem BioAssay AID1745849 (National Center for Advancing Translational Sciences (NCATS), 2022).
Out of some 2,100 compounds screened, about 320 (15%) were called active. Inconclusive means that the source gave no clear call. Such entries were picked first, then a sample of the others. The call rests on the fitted dose curve; in most records, active means well fitted cell-killing curve with a large enough effect; inconclusive means small, poorly fitted or top-dose-only effect, or effect the other way; inactive means flat fitted curve, though single readings scatter. Potencies of inconclusive entries are doubtful fits and often do not repeat.

assay: Viability Counterscreen for CMV-Luciferase Assay of Inhibitors of ATXN expression; conditions: HEK-293 CMV-luciferase cells viability, protease fluorescence, 24 h; further: nearly all actives have a fitted effect of over 55% in size
Procedure, shortened: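 Cells: HEK-293/CMV-luc in phenol-red-free DMEM, 2 hr settle. Cpd dose, 24 hr, 37 °C, 5% CO2. Viability: Gly-Phe-AFC 25 uM final, 30 min, fluor. Then SteadyGlo, 5 min RT, lumin.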
Potency means the concentration at half of the fitted maximal effect; tags describe the fitted curve by direction and shape.

For `CC[n+]1c(C=C2C=C(C)OC(C)=C2)sc2ccccc21`, which Potency is on record?
The Potency was active: 14.1 µM.

Which Potency does the source give for `O=C(CNC(=O)c1ccc2c(c1)OCO2)N/N=C/c1cc(Br)ccc1O` here?
Its Potency is inconclusive: 1.12 µM [cytotoxic, partial curve].

With `Cc1[nH]n(-c2ccccc2)c(=O)c1/C=N/NC(=O)c1ccccc1F` as the molecule, how does the Potency read?
Its Potency is inconclusive: 10 µM [cytotoxic, partial curve, poor fit].

Which Potency does the source give for `NNc1ccc(Cc2ccc(Cl)cc2Cl)nn1` here?
The Potency was inconclusive: 15.8 µM [cytotoxic, partial curve, poor fit].

For `CCOC(=O)C(C(C)=O)c1c(Br)c(O)c(O)c2c(C(=O)c3ccc(C)cc3)coc12` (centres undefined), which Potency is on record?
The Potency was active: 10 µM.

With `O=C(NCc1ccccc1)C1=C[C@@H](c2csc3ccccc23)C[C@@H](OCCCCO)O1` as the molecule, how does the Potency read?
The Potency was inconclusive: 6.31 µM [cytotoxic, full curve, poor fit].

With `O=[N+]([O-])c1ccc(NC(c2ccccc2)c2ccc3cccnc3c2O)cc1` (centres undefined) as the molecule, how does the Potency read?
The Potency was active: 11.2 µM.

Which Potency does the source give for `O=C1c2cccc3c([N+](=O)[O-])ccc(c23)C(=O)N1c1ccc(Cl)cn1` here?
Its Potency is inconclusive: 35.5 µM [rising, partial curve].

For `Clc1cccc(-c2nc(NCc3cccnc3)c3ccccc3n2)c1`, which Potency is on record?
The Potency was “inactive”.

For `CCOc1ccc(CN(C)c2nc(-c3cccnc3)nc3ccccc23)cc1OC`, which Potency is on record?
The Potency was inconclusive: 31.6 µM [cytotoxic, partial curve, poor fit].

For `CC1(C)Cc2c(c(-c3ccco3)nc3sc4c(NCCN5CCOCC5)ncnc4c23)CO1`, which Potency is on record?
The Potency was “inactive”.

With `COc1ccc(-c2noc(CCCC(=O)NC3CCCC3)n2)cc1` as the molecule, how does the Potency read?
Its Potency is inconclusive: 12.6 µM [cytotoxic, partial curve, poor fit].

For `O=C(c1ccc(Cl)s1)N1CCN(c2nc3ccccc3s2)CC1`, which Potency is on record?
The Potency was “inactive”.

For `CCOC(=O)c1c(C)nn(-c2ccc(NC(=O)/C=C/C(=O)O)cc2)c1C`, which Potency is on record?
Its Potency is “inactive”.

For `C(=N\Nc1ccc2nncn2n1)/c1ccccn1`, which Potency is on record?
Its Potency is active: 11.2 µM.

Which Potency does the source give for `O=[N+]([O-])c1cc(O)c2ncccc2c1` here?
Its Potency is inconclusive: 3.55 µM [cytotoxic, single point].

With `COc1ccc(-c2cnc3c(NC=O)cc(-c4ccccc4OC)cn23)cc1OC` as the molecule, how does the Potency read?
Its Potency is inconclusive: 0.1 µM [cytotoxic, full curve, poor fit].

Which Potency does the source give for `ClC(Cl)(Cl)c1nc2ccccc2n2nncc12` here?
The Potency was inconclusive: 1.12 µM [cytotoxic, full curve, poor fit].

With `COc1ccc(CC(N)c2csc(NC(=O)c3cc(C(C)(C)C)nn3Cc3ccccc3)n2)cc1` (centres undefined) as the molecule, how does the Potency read?
Its Potency is “inactive”.

Which Potency does the source give for `O=C(c1ccco1)N(CCCN1CCOCC1)c1nc(-c2ccc(Cl)cc2)cs1` here?
The Potency was “inactive”.

For `NC(Cc1ccc(Cl)cc1)c1csc(Nc2nccc(C(F)(F)F)n2)n1` (centres undefined), which Potency is on record?
The Potency was inconclusive: 17.8 µM [cytotoxic, single point].

With `OC(c1cc(F)cc(Cl)c1)c1ncc(-c2cccc(C(F)(F)F)c2)[nH]1` (centres undefined) as the molecule, how does the Potency read?
The Potency was “inactive”.

For `O=C(CCCOc1ccc(Cl)cc1Cl)N/N=C/c1ccccc1O`, which Potency is on record?
The Potency was active: 3.98 µM.

For `O=C1c2ccccc2NC(c2ccc(-c3cccc([N+](=O)[O-])c3)o2)N1O` (centres undefined), which Potency is on record?
Its Potency is inconclusive: 22.4 µM [cytotoxic, single point].

Which Potency does the source give for `OC[C@@H]1CN(Cc2ccc(-c3ccccc3)cc2)C[C@H](n2cnc3c(NC4CCC4)ncnc32)O1` here?
Its Potency is inconclusive: 25.1 µM [cytotoxic, partial curve, poor fit].

For `CCOc1ccc(N(CC(=O)NCCC2=CCCCC2)S(=O)(=O)c2ccccc2)cc1`, which Potency is on record?
The Potency was inconclusive: 3.16 µM [cytotoxic, single point].

With `O=C(OCCN1C(=O)c2cccc3c(N4CCOCC4)ccc(c23)C1=O)c1ccccc1Cl` as the molecule, how does the Potency read?
The Potency was inconclusive: 28.2 µM [rising, partial curve].

With `Cc1[nH]n(-c2cccc3ccccc23)c(=O)c1/C=N/NC(=O)c1cccc([N+](=O)[O-])c1` as the molecule, how does the Potency read?
The Potency was active: 11.2 µM.

With `CCc1ccc(-n2cc(-c3ccc(F)cc3)[n+]3c2SCCC3)cc1` as the molecule, how does the Potency read?
Its Potency is inconclusive: 39.8 µM [cytotoxic, single point].

For `O=C(Nc1ccc(Cl)cc1)Nc1nc(-c2sccc2Br)cs1`, which Potency is on record?
Its Potency is active: 10 µM.

With `CSc1sc(C(=O)NN)c2c1C1(CCC2)SCCS1` as the molecule, how does the Potency read?
The Potency was “inactive”.

With `COc1cccc2c1C(CO)N1C(C#N)C3CC(C(=O)O)C(C1C2)N3C` (centres undefined) as the molecule, how does the Potency read?
The Potency was inconclusive: 0.355 µM [cytotoxic, full curve, poor fit].

Which Potency does the source give for `Cc1onc(-c2ccccc2)c1C(=O)N/N=C/c1c[nH]c2ccccc12` here?
Its Potency is “inactive”.

With `O=c1c2c3c(sc2ncn1/N=C/c1ccc([N+](=O)[O-])o1)CCCC3` as the molecule, how does the Potency read?
Its Potency is inconclusive: 7.08 µM [cytotoxic, single point].

Which Potency does the source give for `CC(=O)NC(c1ccc(C(C)C)cc1)c1ccc2cccnc2c1O` (centres undefined) here?
Its Potency is inconclusive: 1 µM [cytotoxic, full curve, poor fit].

For `COc1cnc(-c2ccccn2)nc1Oc1c(C)cccc1C`, which Potency is on record?
The Potency was inconclusive: 31.6 µM [cytotoxic, partial curve, poor fit].

Which Potency does the source give for `CC1(S(=O)(=O)O)CC(=O)c2ccccc2C1=O` (centres undefined) here?
Its Potency is inconclusive: 25.1 µM [rising, partial curve].

For `Cn1nnnc1Sc1ncnc2scc(-c3cccc(S(C)(=O)=O)c3)c12`, which Potency is on record?
Its Potency is inconclusive: 8.91 µM [cytotoxic, full curve, poor fit].

With `CC(=O)NC(c1cc(Cl)c2cccnc2c1O)C(C)C` (centres undefined) as the molecule, how does the Potency read?
Its Potency is inconclusive: 1.12 µM [cytotoxic, full curve].

For `Cc1c(C(=O)NCc2ccc(C(F)(F)F)cc2)sc(=O)n1Cc1cccc(F)c1`, which Potency is on record?
Its Potency is “inactive”.

For `Cc1ccc(OCCNC(=O)c2cncc(Br)c2)cc1C`, which Potency is on record?
Its Potency is inconclusive: 20 µM [cytotoxic, partial curve, poor fit].

With `CC[n+]1ccccc1/C=C1\Sc2ccc(C)cc2N1C` as the molecule, how does the Potency read?
The Potency was inconclusive: 12.6 µM [cytotoxic, partial curve].

For `O=C(Nc1cnn(C23CC4CC(CC(C4)C2)C3)c1)c1cnn2c(C(F)(F)F)cc(-c3ccco3)nc12`, which Potency is on record?
Its Potency is active: 12.6 µM.

For `COc1cccc(N2CCN(c3nc(-c4ccccc4C)cc(=O)[nH]3)CC2)c1`, which Potency is on record?
The Potency was inconclusive: 1.58 µM [cytotoxic, partial curve, poor fit].

Which Potency does the source give for `CCc1c(C)nc2ncnn2c1N1CCC(C(=O)Nc2ccc(C)cc2)CC1` here?
Its Potency is “inactive”.

Which Potency does the source give for `CN(/N=C/c1cc(Br)cc(Br)c1O)c1cccc(C(F)(F)F)n1` here?
The Potency was inconclusive: 11.2 µM [cytotoxic, partial curve, poor fit].

With `CC(C)CC[n+]1ccn(C2=C([O-])c3ccccc3C(=O)/C2=N\S(=O)(=O)c2ccccc2)c1` as the molecule, how does the Potency read?
The Potency was inconclusive: 3.16 µM [cytotoxic, single point].

Which Potency does the source give for `COc1ccc(Cc2[nH]n3c(=O)cc(C(C)C)nc3c2-c2ccccc2)cc1` here?
The Potency was inconclusive: 7.94 µM [cytotoxic, full curve].

Which Potency does the source give for `COc1cccc(/C=N/NC(=O)c2nc(-c3ccccc3)cc(-c3ccccc3)n2)c1O` here?
Its Potency is inconclusive: 2 µM [cytotoxic, partial curve, poor fit].

With `FC(F)(F)c1nc(-c2cccs2)ncc1-c1nnnn1-c1ccc(Cl)cc1` as the molecule, how does the Potency read?
Its Potency is inconclusive: 20 µM [cytotoxic, partial curve, poor fit].

Which Potency does the source give for `CC(=NNC(=O)c1ccncc1)c1ccccc1O` here?
The Potency was inconclusive: 7.08 µM [cytotoxic, single point].

For `C/C(=N\NC(=O)C12CCC(C)(C(=O)O1)C2(C)C)c1ccccc1O` (centres undefined), which Potency is on record?
The Potency was “inactive”.

Which Potency does the source give for `NNc1ncnc2sc3c(c12)CCC3` here?
The Potency was “inactive”.

With `Cc1ccc(C(=O)COC(=O)c2ccc3c(c2)C(=O)N(c2cccc4ncccc24)C3=O)cc1` as the molecule, how does the Potency read?
The Potency was active: 22.4 µM.

With `Oc1ccc(C2CNCc3sccc32)cc1O` (centres undefined) as the molecule, how does the Potency read?
The Potency was inconclusive: 14.1 µM [cytotoxic, partial curve, poor fit].

Which Potency does the source give for `C=CCc1cccc(/C=N/NC(=O)CNc2ccccc2OC)c1O` here?
Its Potency is inconclusive: 7.94 µM [cytotoxic, full curve, poor fit].

With `CC(C)(C)c1ccc(NC(=O)N2CCCN(c3c(Cl)cncc3Cl)CC2)cc1` as the molecule, how does the Potency read?
Its Potency is “inactive”.

For `C=CCn1cnc2c(c1=O)c1nc3ccccc3nc1n2/N=C/c1cc(OC)c(OC)c(OC)c1`, which Potency is on record?
The Potency was active: 11.2 µM.

With `Cc1cc(C)cc(C(=O)Nc2ccc(N3CCN(C(=O)c4ccco4)CC3)cc2)c1` as the molecule, how does the Potency read?
Its Potency is inconclusive: 3.55 µM [cytotoxic, partial curve, poor fit].

For `Cc1c(C(=O)N/N=C/c2c(O)ccc3ccccc23)nnn1-c1nonc1N`, which Potency is on record?
The Potency was inconclusive: 0.178 µM [cytotoxic, full curve, poor fit].

For `CN(C)CCNC(=O)c1cccc(-c2cnc3c(NC=O)cc(/C=C/c4ccccc4)cn23)c1`, which Potency is on record?
The Potency was active: 28.2 µM.

With `NNc1nc(N)c2c(n1)-c1ccccc1CC21CCCC1` as the molecule, how does the Potency read?
Its Potency is “inactive”.

With `CCn1c(COc2ccccc2C)nnc1SCC(=O)N1CCN(c2ccccc2)CC1` as the molecule, how does the Potency read?
Its Potency is inconclusive: 8.91 µM [cytotoxic, full curve, poor fit].

For `Cn1cc(SCC(=O)Nc2nc3ccccc3s2)c2ccccc21`, which Potency is on record?
The Potency was “inactive”.

With `NS(=O)(=O)c1ccc(N2N=C(c3ccccc3)CC2c2ccc(F)cc2)cc1` (centres undefined) as the molecule, how does the Potency read?
Its Potency is “inactive”.

For `COc1cccc(Nc2nc(C(N)CCc3ccccc3)cs2)n1` (centres undefined), which Potency is on record?
The Potency was inconclusive: 22.4 µM [cytotoxic, single point].

Which Potency does the source give for `CC(=O)N(C1=C(Cl)C(=O)c2ccccc2C1=O)C1CCCCC1` here?
Its Potency is inconclusive: 15.8 µM [rising, partial curve].

Which Potency does the source give for `Cc1cccn2c(=O)c(/C=C(\C#N)C(N)=O)c(N3CCN(c4cccc(Cl)c4)CC3)nc12` here?
Its Potency is inconclusive: 15.8 µM [cytotoxic, partial curve, poor fit].

Which Potency does the source give for `COc1cc(NC(=O)c2cc(-c3ccccc3)nc3c2cnn3C(C)C)cc(OC)c1OC` here?
The Potency was inconclusive: 7.08 µM [cytotoxic, single point].
